The % Inhibition is the drop in the measured response relative to a control, in per cent.

We go through 41 compounds from ChEMBL document CHEMBL4888484, “Replenishing the malaria drug discovery pipeline: Screening and hit evaluation of the MMV Hit Generation Library 1 (HGL1) against asexual blood stage Plasmodium falciparum ,using a nano luciferase reporter read-out” (2022).

Each structure is given as a SMILES string. The campaign covered roughly 150,000 compounds. About 540 (0.36%) showed an effect of 50% or more. The list shows a part of the results.

For this assay, the system named is Plasmodium falciparum. The assay can be described thus: Primary screen in NF54 nanoGlo assay, in single point, at 2uM, 72h; a lower Z score goes with more inhibition. Type of assay: functional, Erythrocyte. The note with it: timepoint 72 hour.

For the compound `O=C1OC2CC1N(C(=O)c1cc(Cl)ccc1Cl)C2` (configuration not stated), the “% Inhibition” value is -9% and the Z score was found to be 1.34.
In the same order, the values of `O=C1NC(c2ccc(-c3ccccc3Cl)o2)C(C(=O)c2ccccc2)C(O)(C(F)(F)F)N1` (configuration not stated) are 0% and -0.08.
Take `CN(CC(F)(F)F)C(=O)CN1CC[S@+]([O-])C(C)(C)C1`: the “% Inhibition” value was -3% and the Z score was 0.31.
With `O=C(Nc1cn[nH]c1)N(CC1(O)CCCC1)CC1(O)CCCC1`, the “% Inhibition” value was -9% and the Z score was determined as 1.88.
For the compound `Cc1c(C(=O)NCC(C)(C)N2CCOCC2)cnn1-c1ncc2c(n1)-c1ccccc1CCC2`, the “% Inhibition” value is -5% and the Z score is given as 1.
As for `O=C(NC[C@H]1CCCO1)c1coc(CN(Cc2ccc(F)cc2)Cc2ccccc2Cl)n1`, the “% Inhibition” value is -13% and the Z score worked out at 1.61.
The like results for `CCCc1[nH]ccc1C(=O)NC[C@H]1CCCn2ccnc21` were, in that order, -7% and 1.29.
The like results for `O=c1nc(CN(c2ccccc2)C2Cc3ccccc3C2)[nH][nH]1` were, in that order, -11% and 1.48.
In the same order, the values of `O=C(CC[C@H]1CC[C@@H](C(F)(F)F)O1)N[C@H]1CCC[C@H]1C(=O)O` are -4% and 0.64.
Turning to `Cc1cc(C(=O)N2CCc3nocc3C2)c(=O)n(C)c1C`, the “% Inhibition” value is given as -4% and the Z score worked out at 0.71.
As to `N#Cc1cccc(CN2Cc3nc[nH]c3C[C@H]2c2nc(-c3ccc4ccccc4c3)no2)c1`, the “% Inhibition” value was -6% and the Z score is 0.87.
For `O=C(Nc1ccccc1N1CCCC1)c1cccc[n+]1[O-]`, the “% Inhibition” value is listed as -14% and the Z score is reported as 1.47.
On to `CCOC(=O)[C@H]1CCCN(CC(=O)Nc2ccc3c(c2)OCO3)C1`, for which the “% Inhibition” value turned out to be 3% and the Z score was -0.42.
In the same order, the values of `COc1cccc(C(=O)NC[C@H](C)N2CCc3ccccc32)c1OC(F)F` are -4% and 0.66.
In the same order, the values of `CCN1C(=O)N(c2nnc(C)s2)C(=O)[C@@H]1Cc1ccccc1` are -7% and 0.98.
For the compound `COc1ccc2c(-c3ccccc3)c(C(=O)Nc3ccc(F)cc3)oc2c1`, the “% Inhibition” value was 5% and the Z score is recorded as -0.91.
In the same order, the values of `Oc1cc(CN2CCCCC2)nc(C2CC2)n1` are -18% and 3.38.
Consider `COC(=O)c1ncn(C[C@@H](O)Cc2ccccc2C(F)(F)F)n1`, for which the “% Inhibition” value is listed as -12% and the Z score turned out to be 1.05.
The like results for `CC(C)CN1Cc2cc(NS(=O)(=O)c3ccccc3)ccc2O[C@@H](C)C1=O` were, in that order, 0% and -0.04.
In the same order, the values of `CNc1snc(C)c1C(=O)N1CC[C@](C)(O)C1` are -29% and 3.44.
The like results for `Cc1ccc(NC(=O)NC[C@H](c2cccnc2)c2c[nH]c3ccccc23)c(C)c1` were, in that order, -9% and 1.73.
With `O=C(Nc1ccccc1)c1nnc(N2CCC(Cc3ccccc3)CC2)c2ccccc12`, the “% Inhibition” value was -6% and the Z score was 0.54.
In the same order, the values of `O[C@H]1CCN(c2ccnc(N3CCCn4cncc4C3)n2)C1` are 2% and -0.27.
Consider `COc1cccc(CO[C@@H](CN2CCN(S(=O)(=O)c3ccc(OC)c(OC)c3)CC2)c2ccc(Cl)cc2)c1`, for which the “% Inhibition” value is given as -9% and the Z score came out at 1.26.
In the same order, the values of `CN(C)c1nc(CCC2CCN(C(=O)Cn3cccn3)CC2)no1` are 0% and 0.
In the same order, the values of `CS(=O)(=O)Nc1ccc(-c2cc(F)c3c(c2)C[C@H](CN)O3)cn1` are -13% and 2.62.
Regarding `Cc1ccsc1C(=O)NCCNc1ncccn1`, the “% Inhibition” value was -7% and the Z score came to 0.93.
In the case of `N#Cc1cnn(CCN2CCC[C@H](c3cc(C(F)(F)F)[nH]n3)C2)c1`, the “% Inhibition” value is -14% and the Z score came to 1.39.
Turning to `CC(=O)N1CCC[C@@](NCCN2CCCCC2)(c2nnnn2CCC(C)C)C1`, the “% Inhibition” value was 2% and the Z score is reported as -0.2.
In the same order, the values of `CN(C)c1ccc(CN2CC[C@H](c3nnc(Cc4ccccc4)o3)C2)cc1` are 25% and -2.8.
Consider `CCCn1c(=O)c2sc(N3CCC(C)CC3)nc2n(CC(=O)Nc2cccc(F)c2)c1=O`, for which the “% Inhibition” value was -9% and the Z score is reported as 1.56.
As to `COc1ccc(-c2cc(OC(F)(F)F)ccc2O)nn1`, the “% Inhibition” value is reported as -8% and the Z score turned out to be 1.53.
For the compound `CC1(C)COCCN1Cc1csc(-c2ncccn2)n1`, the “% Inhibition” value is given as 10% and the Z score is given as -1.53.
`O=C(c1ccoc1)N1CCC(N2C(=O)CNC2=O)CC1`: the “% Inhibition” value is -6% and the Z score is recorded as 1.09.
In the same order, the values of `CC(C)NC(=O)c1nnn2c1CO[C@H](c1ccccc1)C2` are 0% and 0.05.
Regarding `O=c1[nH]c(N2CCCC2)nc2nccc(-c3ccc(F)cc3)c12`, the “% Inhibition” value is given as -14% and the Z score is 2.03.
In the same order, the values of `Nc1nc(-c2cccs2)c2nc[nH]c2n1` are -2% and 0.3.
Take `Cn1ccnc1C[C@H](NC(=O)N1CC(C)(C)C1(C)C)c1ccccc1`: the “% Inhibition” value is recorded as -9% and the Z score worked out at 0.92.
In the same order, the values of `COCc1nocc1C(=O)N1CCC[C@H]1c1nc(N(C)C)no1` are 6% and -0.64.
With `Cc1cc(CC(=O)N2CC(F)(F)C[C@H]2c2nc(C)no2)on1`, the “% Inhibition” value is reported as -5% and the Z score is 0.82.
The like results for `Cc1c(NC(=O)c2ccn(C)c(=O)c2)cccc1OC1CCCC1` were, in that order, -15% and 1.84.
